# Hit rate of the full screen: of about 310,000 compounds, about 2,200 (0.71%) showed an effect of 50% or more. The effect is printed as a negative number. The list shows a part of the results.
# Target: human ether-à-go-go-related gene (hERG) potassium channel (human, UniProt Q12809)
# Assay: primary screen, population patch clamp on CHO cells stably expressing hERG
# human ether-à-go-go-related gene (hERG) potassium channel, sequence (Q12809 whole entry, looked up): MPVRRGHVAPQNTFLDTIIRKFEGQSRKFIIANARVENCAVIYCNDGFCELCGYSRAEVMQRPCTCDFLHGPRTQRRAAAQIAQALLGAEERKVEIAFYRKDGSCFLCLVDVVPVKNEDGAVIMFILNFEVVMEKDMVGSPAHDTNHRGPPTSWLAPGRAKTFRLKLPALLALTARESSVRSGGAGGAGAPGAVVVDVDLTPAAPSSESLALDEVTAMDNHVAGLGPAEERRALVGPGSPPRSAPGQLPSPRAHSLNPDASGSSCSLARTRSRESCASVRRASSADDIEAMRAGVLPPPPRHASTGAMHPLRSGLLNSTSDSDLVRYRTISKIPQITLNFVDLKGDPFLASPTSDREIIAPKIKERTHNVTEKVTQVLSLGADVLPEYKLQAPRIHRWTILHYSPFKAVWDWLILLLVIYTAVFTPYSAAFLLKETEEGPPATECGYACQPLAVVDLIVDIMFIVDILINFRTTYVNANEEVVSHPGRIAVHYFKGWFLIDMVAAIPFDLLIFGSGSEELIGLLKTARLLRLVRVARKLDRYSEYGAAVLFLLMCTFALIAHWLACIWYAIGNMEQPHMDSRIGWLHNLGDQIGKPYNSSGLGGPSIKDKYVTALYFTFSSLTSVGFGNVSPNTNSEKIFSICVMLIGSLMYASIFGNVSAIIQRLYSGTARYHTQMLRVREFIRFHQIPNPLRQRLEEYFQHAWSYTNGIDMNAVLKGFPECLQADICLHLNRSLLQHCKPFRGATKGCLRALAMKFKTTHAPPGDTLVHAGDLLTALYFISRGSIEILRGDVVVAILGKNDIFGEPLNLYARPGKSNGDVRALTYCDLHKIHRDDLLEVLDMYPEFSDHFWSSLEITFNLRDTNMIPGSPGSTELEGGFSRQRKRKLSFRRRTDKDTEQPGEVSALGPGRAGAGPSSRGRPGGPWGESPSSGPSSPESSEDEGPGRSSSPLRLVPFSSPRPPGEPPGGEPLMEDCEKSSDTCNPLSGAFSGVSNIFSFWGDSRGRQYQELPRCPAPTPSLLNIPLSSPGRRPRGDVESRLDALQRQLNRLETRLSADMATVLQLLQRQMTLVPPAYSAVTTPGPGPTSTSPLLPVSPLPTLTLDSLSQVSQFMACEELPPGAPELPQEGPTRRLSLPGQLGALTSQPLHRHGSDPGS
row,SMILES,"hERG current change (%, negative = inhibition) at 1uM"
1,COc1ccc(S(=O)(=O)N(CC(=O)N/N=C/c2cccs2)c2ccc(C)cc2)cc1OC,6.58%
2,O=C(CN1CCN(S(=O)(=O)c2ccc(Cl)s2)CC1)N1CCCCC1,-0.262%
3,Cc1ccc(C2=[N+]([O-])C3(CCCCC/C3=N\NC(N)=S)N(O)C2(C)C)o1 (centres unmarked),13.8%
4,Cc1cc(Nc2ccc(C(C)C)cc2)n2ncnc2n1,-17.3%
5,COc1ccc(C2(CNC(=O)c3ccc(C)cc3)CCOCC2)cc1,3.36%
6,COc1nc(C)nc2c1ccc1ccccc12,6.65%
7,Cc1ccc(C(C)NC(=O)c2ccc3c(c2)OCCO3)cc1C (centres unmarked),4.6%
8,CCOC(=O)C1(CCc2ccccc2)CCN(Cc2ccco2)CC1,-42.7%
9,CCOC(=O)/C(C#N)=C/c1cn(CCC(=O)O)nc1-c1ccc(OC)cc1,10.6%
10,CC(=O)c1nnn(-c2cccc([N+](=O)[O-])c2)c1C,6.76%
11,O=C(c1ccccc1)N(Cc1cccs1)C1CCS(=O)(=O)C1 (centres unmarked),13.9%
12,CC1CCCN(C(=O)COc2ccc(NC(=O)c3cccs3)cc2)C1 (centres unmarked),12%
13,COC(=O)c1ccccc1NC(=O)c1cc(OC)cc(OC)c1,-0.763%
14,CCCc1nc2oc3ccccc3c(=O)c2c(=O)n1CCCOC,7.04%
15,CCc1ccc2ncc(C(=O)c3ccccc3)c(N3CCOCC3)c2c1,5.69%
16,C=CCOC(=O)C1=C[C@H](C(C)(C)C)[C@@H](CCCO)[C@H](OCC)O1,19.4%
17,CCN(CCn1cccn1)C(=O)c1cc(COc2cc(C)ccc2C)on1,-2.57%
18,CCOC(=O)C1CCN(C(=O)c2ccc3c(c2)NC(=O)/C(=C\c2ccc(C)cc2)S3)CC1,7.95%
19,COCCn1c(SCC(=O)N2CCOCC2)nnc1-c1ccco1,25.1%
20,O=C1NC(=O)C2(Cc3ccccc3N3CCCC32)C(=O)N1c1ccccc1 (centres unmarked),14.2%
21,O=C(COC(=O)COc1ccccc1F)Nc1ccc(Cl)cn1,7.31%
22,Cc1ccc(OCc2ccc(C(=O)Nc3nccs3)o2)cc1,-3.4%

row,SMILES,"hERG current change (%, negative = inhibition) at 1uM"
1,Cc1nc(Nc2cc(F)ccc2C)c2nnn(Cc3ccccc3)c2n1,2.56%
2,O=C(N/N=C(\c1ccccc1)c1cccnc1)c1cc(O)ccc1O,11.4%
3,Cc1cccc(C(=O)OCC(=O)NCc2ccco2)c1,6.36%
4,C=CCN(CC=C)CCOc1ccc(OC(C)C)cc1.O=C(O)C(=O)O,-14.5%
5,CCN(CC)S(=O)(=O)c1ccc(Cl)c(C(=O)Nc2cc(C)nn2-c2ccccc2C(F)(F)F)c1,3.06%
6,CCOCCCNC(=O)c1c[nH]c2ccc(OCC)cc2c1=O,10.9%
7,COc1ccccc1/C=N/NC(=O)CSc1cc(C)nc2ccccc12,10.4%
8,COc1ccc2c(c1)c(/C=C/c1cc[n+](C)cc1)cn2C.[I-],14.6%
9,CCOc1ccccc1N(CC(=O)Nc1c(C)n(C)n(-c2ccccc2)c1=O)S(=O)(=O)c1ccccc1,3.66%
10,O=C(CSc1nc2c(c(=O)n1-c1ccc(F)cc1)SCC2)N1CCCC1,8.13%
11,COc1cccc(N2CN(CCc3ccccc3)CNC2=S)c1,8.03%
12,O=C(O)c1ccc2nc(C(F)(F)F)[nH]c2c1,5.07%
13,CN1CCN(c2ccc(S(=O)(=O)N3CCCCC3)cc2NC(=O)COc2ccc([N+](=O)[O-])cc2)CC1,-1.77%
14,O=S(=O)(NC1CCCCC1NS(=O)(=O)c1ccc(F)cc1)c1ccc(F)cc1 (centres unmarked),9.19%
15,N=c1c2c3c(sc2ncn1CCN1CCOCC1)CCCC3,3.39%
16,CC1=C(C(=O)O)N2C(=O)C(NC(=O)c3nn(C)cc3[N+](=O)[O-])C2SC1 (centres unmarked),17.6%
17,COc1ccc(C(=O)Nc2ccc(NC(=O)c3cccs3)c(OC)c2)cc1Cl,-3.7%
18,Cn1c(SCC(=O)N=Nc2c(O)[nH]c3ccccc23)nc2ccccc21,15.1%
19,COc1ccccc1CNC(=O)C1CCCN(S(C)(=O)=O)C1 (centres unmarked),13.6%
20,Cc1ccc2c(C)c(C(=O)N(Cc3ccc(F)cc3)C3CCS(=O)(=O)C3)oc2c1 (centres unmarked),6.92%
21,Cc1ccc(/C=C(\C#N)C(=O)Nc2ccccn2)o1,10%
22,CCN(c1ccc(OC)cc1)S(=O)(=O)c1cc(-c2cc(C)no2)ccc1OC,11.4%
